Reference: a collection of fitness landscapes (doi:10.1016/j.celrep.2020.107928)
Whole data set: some 81,000 sequences, median “one-hybrid fitness for binding parS DNA” near -0.17, cut for the highest 2% near 0.51. The list shows a part of the results.

B1: Caulobacter ParB omega fusion; a variant is named by its letters at X, in order, B8GW30 (parent)
chain: MESVVVGEPGMSEGRRGLGRGLSALLGEVDAAPAQAPGEQLGGSREAPIEILQRNPDQPRRTFREEDLEDLSNSIREKGVLQPILVRPSPDTAGEYQIVAGERAWRAAQRAGLKTVPIMVRELDDLAVLEIGIIENVQRADLNVLEEALSYKVLMEKFERTQENIAQTIGKSXSHVANXMRLLXLPDEVQSYLVSGELTAXHARAIAAAADPVALAKQIIEGGLSVRETEALARKAPNLSAGKSKGGRPPRVKDTDTQALESDLSSVLGLDVSIDHRGSTGTLTITYATLEQLDDLCNRLTRGI

Variants of: B1
Assay: one-hybrid fitness for binding parS DNA (scaled: cognate 1, non-cognate 0); higher = stronger binding
Conditions: with parS DNA site
Outline: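 Pre- and post-selection plasmids were Illumina-sequenced, three replicate libraries were pooled, and any variant with under 10 reads was removed. The libraries were Caulobacter ParB with four specificity codons randomised, selected in E. coli USO through a HIS3 reporter whose site is 19 bp from the promoter. Cells grew 48 hours at 37°C on M9 without histidine, with 0.1 mM IPTG and 5 mM 3-AT. Fitness is the log change in variant-to-wild-type read ratio, rescaled against cognate and non-cognate.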

one-hybrid fitness for binding parS DNA, 0.441:
RSLY

one-hybrid fitness for binding parS DNA, 0.214:
RQYW

one-hybrid fitness for binding parS DNA, 0.991:
RLVG

one-hybrid fitness for binding parS DNA, 0.862:
RGNS

one-hybrid fitness for binding parS DNA, 0.215:
RQDF

one-hybrid fitness for binding parS DNA, 0.256:
KLMP

one-hybrid fitness for binding parS DNA, ≤ 0.2:
FSRL
LVPM
SDNA
QNYI
PDAQ
FNGF
HNKG
YISC
HPKT
HYVF
YWVS
MQYL
TIGA
MSAV
EITA
SKTT
QIPT
SVAS
TNLF
YSGT
TVRS
HTPT
GMVF
TMPT
PIYP
HHPY
EHEC
SSAL
GCSG
ILNK
TNFE
VDWL
LWYC
ICYR
TDSF
THAN
RHKI
AYNV
EVKM
IRTC
DMYC
FVRR
AKNS
HNSA
LVMC
GKTM
ESPA
CYPM
TPCT
QHKE
KFGS
GWNN
PDLR
FLRD
HICR
PHKT
NPYT
PVDM
DNKS
KIPV
KLLC
DKQL
RKSI
YTDK
QHCY
DGKP
SIWV
RRRD
VQGT
SLQE
RWVP
AVRT
QASN
SPPF
SLYK
KPIR
QMIR
FFAA
LLYT
AFGN
QTDW
RRGL
LSLH
MRRS
PENC
MNPS
TVSE
GSDN
EAIG
LWSS
DKCC
KKYT
VASR
GWFR
RKPN
HQPC
SWVT
ATKQ
HFDR
MYGY
DTNA
SCSS
VSIM
MMVS
KAGY
AQMS
STWN
ALLG
NPEF
CKYR
PVQS
IVNT
TTWT
AGMK
IYTP
VYES
LFYT
PHKG
SHES
QERV
SEVR
YVAR
HDAP
WWHL
SHMC
GKPE
RENL
TAMI
VWTT
SAGF
SNGT
EIQR
CTLS
LHTM
PVSL
QSLG
LSDF
PQQK
RRWV
VTAG
PVVK
QYAW
KMCR
GWQR
GQKR
GTIC
HPYT
WYTC
KGHS
PCFG
TNDI
FRNH
PSEF
MHNW
TVWG
RPNF
TFTL
LFCS
PSWF
SFCS
NVNK
ANPG
HRMH
VMSN
MAFE
QVDT
NISA
KVSN
TPLL
QAMG
LWIR
NMHT
ILYW
KKNA
ANAV
KRWN
CLHS
NYIT
WYWS
YLHW
PLNA
DDTV
RHYP

one-hybrid fitness for binding parS DNA, 0.435:
RASN

one-hybrid fitness for binding parS DNA, 0.415:
HRSS

one-hybrid fitness for binding parS DNA, 0.216:
EQYW
ATVN
RYMF

one-hybrid fitness for binding parS DNA, 0.818:
RKAT
